One assay concerns HSkMC. Put plainly: cytotoxicity call (relative viability < 0.9). The note with it: 10 µM.
The next assay relates to S. aureus RN4220. As to the kind of experiment: growth inhibition call (relative growth <= 0.2). The note with it: 50 µM.

The list shows a part of the results.

Take `C=CCCC(=O)N(C)[C@H](C)[C@@H](OC(=O)[C@@H]1[C@@H]2C=C[C@]3(O2)[C@H](CN(CC=C)Cc2ccccc2)N(C(C)(C)C)C(=O)[C@@H]13)c1ccccc1`: the cytotoxicity call in the assay with HSkMC was “inactive”. Further, the growth inhibition call with S. aureus RN4220 is “inactive”.
With `COc1ccc(NC(=O)N(C)C[C@@H]2OCCCC[C@H](C)Oc3ccc(NS(=O)(=O)c4ccc(OC)cc4)cc3C(=O)N([C@H](C)CO)C[C@@H]2C)cc1`, the cytotoxicity call with HSkMC was “inactive”. For the same compound, in the assay on S. aureus RN4220, the growth inhibition call was “inactive”.
As for `C[C@@H]1CCCCO[C@H](CN(C)C(=O)Nc2ccc(F)cc2)[C@H](C)CN([C@@H](C)CO)C(=O)c2cc(NC(=O)Nc3ccc4c(c3)OCO4)ccc2O1`, the cytotoxicity call with HSkMC is “inactive”. Moreover, the growth inhibition call with S. aureus RN4220 is “inactive”.
Turning to `CC=Cc1ccc2n(c1=O)C[C@@H]1[C@@H](CO)[C@H](C(=O)NCCc3cn(C)cn3)N(C(=O)CC)[C@H]21`, the cytotoxicity call in the assay with HSkMC was “inactive”. The growth inhibition call in the assay on S. aureus RN4220 was “inactive”.
Consider `Cc1noc(C)c1S(=O)(=O)N(C)C[C@H]1OCCCC[C@@H](C)Oc2ccc(NS(C)(=O)=O)cc2C(=O)N([C@H](C)CO)C[C@@H]1C`, for which, in the assay with HSkMC, the cytotoxicity call is “inactive”. The growth inhibition call with S. aureus RN4220 was “inactive”.
In the case of `COc1ccc2c3c([nH]c2c1)[C@@H](CO)N(Cc1ccncc1)C[C@]13CCN(CC1)Cc1ccc(cc1)-c1ccccn1`, in the assay on HSkMC, the cytotoxicity call was “inactive”. For the same compound, in the assay on S. aureus RN4220, the growth inhibition call was “inactive”.
Turning to `CCC(=O)OC1(C(=O)CCl)C(C)CC2C3CCC4=CC(=O)C=CC4(C)C3(F)C(O)CC21C` (stereo not drawn), in the assay on HSkMC, the cytotoxicity call was “inactive”. The growth inhibition call in the assay with S. aureus RN4220 was “inactive”.
Turning to `C[C@@H]1CCCCO[C@@H](CN(C)Cc2ccccc2)[C@H](C)CN([C@@H](C)CO)C(=O)c2cc(NS(=O)(=O)c3ccc(Cl)cc3)ccc2O1`, the cytotoxicity call in the assay on HSkMC (human skeletal muscle cells) was “inactive”. For the same compound, the growth inhibition call with S. aureus RN4220 was “inactive”.
As to `CN1N=C2CCN(C(=O)[C@@H](COCc3ccccc3)NC(=O)C(C)(C)N)C[C@@]2(Cc2ccccc2)C1=O`, the cytotoxicity call with HSkMC is “inactive”. Besides, the growth inhibition call with S. aureus RN4220 is “inactive”.

Values taken from the antibiotic and cytotoxicity screens of Wong et al. (2023).
